The antibiotic and cytotoxicity screens of Wong et al. (2023)
The list shows a part of the results.

What was measured:
[1] = test system: HSkMC (human skeletal muscle cells); test: cytotoxicity call (relative viability < 0.9); details: 10 µM
[2] = test system: HepG2; test: cytotoxicity call (relative viability < 0.9); details: 10 µM
[3] = test system: S. aureus RN4220; test: growth inhibition call (relative growth <= 0.2); details: 50 µM

| SMILES | cytotoxicity call [1] | cytotoxicity call [2] | growth inhibition call [3] |
| --- | --- | --- | --- |
| CC(=O)n1cc([C@H]2C=C(C(=O)N3CCN(Cc4ccccc4)CC3)O[C@@H](OCc3ccc(COC(=O)NCCCCCC(=O)NO)cc3)C2)c2ccccc21 | inactive | inactive | inactive |
| C[C@@H]1CN([C@H](C)CO)C(=O)c2cc(NS(=O)(=O)c3cn(C)cn3)ccc2O[C@H]1CN(C)S(=O)(=O)c1cccs1 | inactive | inactive | inactive |
| O=C(C[C@H]1CC[C@@H](NS(=O)(=O)c2ccccc2)[C@H](CO)O1)NCc1ccncn1 | inactive | inactive | inactive |
| Cc1ccc(S(=O)(=O)Nc2ccc3c(c2)C(=O)N([C@H](C)CO)C[C@H](C)[C@@H](CN(C)Cc2ccccc2)OCCCC[C@@H](C)O3)cc1 | inactive | inactive | inactive |
| Cc1ccc(S(=O)(=O)N(C)C[C@@H]2OCCCC[C@H](C)Oc3ccc(NS(=O)(=O)c4ccc(F)cc4)cc3C(=O)N([C@H](C)CO)C[C@@H]2C)cc1 | inactive | active | inactive |
| O=C(O)C=Cc1ccc(Cn2ccnc2)cc1 | inactive | active | inactive |
| C[C@@H]1CN([C@@H](C)CO)C(=O)c2cc(NC(=O)Cc3ccccc3)ccc2O[C@H]1CN(C)S(C)(=O)=O | inactive | inactive | inactive |
| Cc1ccc(N(CC2=NCCN2)c2cccc(O)c2)cc1.Cl | inactive | inactive | inactive |
| Cc1ccc(S(=O)(=O)N(C)C[C@H]2OCCCC[C@H](C)Oc3ccc(NS(C)(=O)=O)cc3C(=O)N([C@@H](C)CO)C[C@@H]2C)cc1 | inactive | inactive | inactive |
| COc1ccc(CN(C)C[C@@H]2OCCCC[C@@H](C)Oc3ccc(NC(=O)Nc4cccc5ccccc45)cc3C(=O)N([C@H](C)CO)C[C@@H]2C)cc1 | inactive | inactive | inactive |
| C[C@H]1CCCCO[C@H](CN(C)C(=O)Nc2ccccc2)[C@@H](C)CN([C@@H](C)CO)C(=O)c2cc(NC(=O)Nc3ccc(C(F)(F)F)cc3)ccc2O1 | inactive | inactive | inactive |
| O=C1/C(=C/c2cn(-c3ccccc3)nc2-c2ccc(OCc3ccccc3F)cc2)SC(=S)N1CCS(=O)(=O)O | inactive | inactive | inactive |
| Cc1c(NC(=O)c2cccnc2)c(=O)n(-c2ccccc2)n1C | inactive | inactive | inactive |
| Cn1nnc2c(C(N)=O)ncn2c1=O | inactive | inactive | inactive |
| CO[C@H]1CN(C)C(=O)c2ccc(NS(=O)(=O)CC(F)(F)F)cc2OC[C@H](C)N(Cc2ccccn2)C[C@@H]1C | inactive | inactive | inactive |
| CC(=O)OCC[N+](C)(C)C | inactive | inactive | inactive |
| CCOc1ccc(Nc2nc3c(=O)nc[nH]c3n2[C@H]2O[C@@H](CO)[C@@H](O)[C@@H]2O)cc1 | inactive | inactive | inactive |
| C[C@@H]1CN([C@H](C)CO)C(=O)c2c(c3ccccc3n2C)-c2ccccc2CO[C@@H]1CN(C)Cc1cccc(O)c1 | inactive | inactive | inactive |
| C[C@@H](N)c1ccc(C(=O)Nc2ccnc3[nH]ccc23)cc1 | inactive | active | inactive |

| SMILES | cytotoxicity call [1] | cytotoxicity call [2] | growth inhibition call [3] |
| --- | --- | --- | --- |
| CNC(=O)c1cccc(NC(=S)NC)c1 | inactive | inactive | inactive |
| C[C@@H]1CCCCO[C@H](CN(C)C(=O)Nc2ccc(C(F)(F)F)cc2)[C@@H](C)CN([C@H](C)CO)C(=O)c2cc(NC(=O)c3ccccc3)ccc2O1 | inactive | inactive | inactive |
| O=C(C[C@@H]1C=C[C@H](NC(=O)c2ccc(F)cc2)[C@H](CO)O1)NCc1ccncn1 | inactive | inactive | inactive |
| CCCC[C@@H](C)/C=C(C)/C=C(\C)C(=O)NC1=C[C@@](O)(/C=C/C=C/C=C/C(=O)NC2C(=O)CCC2=O)[C@@H]2O[C@@H]2C1=O | active | active | active |
| COc1ccc(NC(=O)N(C)C[C@H]2Oc3c(NC(=O)C4CC4)cccc3C(=O)N([C@@H](C)CO)C[C@@H]2C)cc1 | inactive | inactive | inactive |
| CO[C@H]1CN(C)C(=O)c2ccc(NS(C)(=O)=O)cc2OC[C@H](C)N(C(=O)c2ccc3c(c2)OCO3)C[C@@H]1C | inactive | inactive | inactive |
| C[C@H]1CN([C@@H](C)CO)C(=O)Cc2cc(NC(=O)CCCCCC(=O)Nc3ccccc3N)ccc2O[C@H]1CN(C)C(=O)Nc1ccc(C(F)(F)F)cc1 | inactive | inactive | inactive |
| CCO[C@H]1OC(C(=O)N2CCOCC2)=C[C@@H](c2ccc3c(c2)OCO3)[C@@H]1CCCOC(=O)NCCCCCC(=O)NO | inactive | inactive | inactive |
| CNC[C@H]1OCCCC[C@@H](C)Oc2ccc(NS(=O)(=O)c3cn(C)cn3)cc2C(=O)N([C@H](C)CO)C[C@H]1C | inactive | inactive | inactive |
| CC(=O)O[C@H](CC(=O)O)C[N+](C)(C)C | inactive | inactive | inactive |
| CSc1ccc2cc(CN(C[C@H]3CCCO3)C(=O)c3ccco3)c(N(C)Cc3csc(C)n3)nc2c1 | inactive | inactive | inactive |
| O=C(C[C@H]1CC[C@H]2[C@@H](COC[C@@H](O)CN2Cc2cc(F)ccc2F)O1)N[C@H]1CCN(Cc2ccccc2)C1 | inactive | active | inactive |
| COc1ccccc1NC(=O)N(C)C[C@H]1OCc2ccccc2-c2c(n(C)c3ccccc23)C(=O)N([C@@H](C)CO)C[C@H]1C | inactive | inactive | inactive |
| COCC(=O)N(C)C[C@@H]1Oc2cc(C#Cc3ccccc3)ccc2S(=O)(=O)N([C@H](C)CO)C[C@@H]1C | inactive | inactive | inactive |
| C[C@@H]1CCCCO[C@H](CN(C)C(=O)Nc2ccc(C(F)(F)F)cc2)[C@H](C)CN([C@H](C)CO)C(=O)c2cc(NC(=O)Cc3ccccc3)ccc2O1 | inactive | inactive | inactive |
| CCS(=O)(=O)N1CC[C@]2(CC1)CN(CC1CCOCC1)[C@@H](CO)c1c2c2ccc(cc2n1C)OC | inactive | inactive | inactive |
| CCCN(C)C[C@H]1OCCCC[C@@H](C)Oc2ccc(NC(=O)Nc3ccccc3)cc2C(=O)N([C@@H](C)CO)C[C@H]1C | inactive | inactive | inactive |
| C[C@@H]1CN([C@@H](C)CO)C(=O)c2cccc(NS(C)(=O)=O)c2O[C@H]1CN(C)S(=O)(=O)c1ccc(Cl)cc1 | inactive | inactive | inactive |
| COc1ccc(N2CCN(c3nc(NCCO)nc(N4CCOCC4)n3)CC2)cc1 | inactive | inactive | inactive |

| SMILES | cytotoxicity call [1] | cytotoxicity call [2] | growth inhibition call [3] |
| --- | --- | --- | --- |
| C[C@H](CO)N1C[C@H](C)[C@H](CN(C)S(C)(=O)=O)Oc2cc(C#CCN(C)C)ccc2S1(=O)=O | inactive | inactive | inactive |
| O=C(C[C@@H]1C[C@H]2c3cc(NS(=O)(=O)c4ccccc4)ccc3O[C@H]2[C@@H](CO)O1)NC1CCCCC1 | inactive | inactive | inactive |
| C[C@H]1CN([C@@H](C)CO)C(=O)Cc2cc(NC(=O)Nc3ccccc3)ccc2O[C@H]1CN(C)Cc1ccc(C(=O)Nc2ccccc2N)cc1 | inactive | inactive | inactive |
| CC1CC(=O)NN=C1c1ccc(NN=C(C#N)C#N)cc1 (stereo unspecified) | inactive | inactive | inactive |
| Cc1cccc(NC(=O)Nc2ccc3c(c2)C(=O)N(C)[C@H]2CC[C@@H](CC(=O)NCc4ccccc4Cl)O[C@H]2CO3)c1 | inactive | inactive | inactive |
| COc1cccc(-c2cnc3c(c2)C(=O)N([C@H](C)CO)C[C@H](C)[C@H](CN(C)S(=O)(=O)c2cccc(F)c2)O3)c1 | inactive | inactive | inactive |
| Cc1cc(C)cc(OCC2CNC(=O)O2)c1 (stereo unspecified) | inactive | inactive | inactive |
| CN1CCN(C(=O)C[C@H]2CC[C@H]3[C@@H](COC[C@@H](O)CN3S(=O)(=O)c3cccc(Cl)c3)O2)CC1 | inactive | inactive | inactive |
| COc1ccc(S(=O)(=O)N(C)C[C@@H]2Oc3ccc(NS(=O)(=O)c4cn(C)cn4)cc3C(=O)N([C@H](C)CO)C[C@H]2C)cc1 | inactive | inactive | inactive |
| Cc1noc(C)c1NC(=O)Nc1ccc2c(c1)C(=O)N([C@H](C)CO)C[C@H](C)[C@H](CN(C)S(=O)(=O)c1ccccc1)OCCCC[C@@H](C)O2 | inactive | inactive | inactive |
| CC(C)(C)[S@](=O)N1Cc2cc(C(=O)NCc3ccncc3)nc(-c3cccc(-c4ccc(C#N)cc4)c3)c2[C@@H]1CCO | inactive | inactive | inactive |
| C[C@@H]1CN([C@H](C)CO)C(=O)c2cc(NS(=O)(=O)c3ccccc3)ccc2O[C@@H](C)CCCCO[C@H]1CN(C)Cc1ccc2c(c1)OCO2 | inactive | inactive | inactive |
| COc1ccc(NC(=O)N(C)C[C@H]2OCCCC[C@H](C)Oc3ccc(NS(=O)(=O)c4ccc(F)cc4)cc3C(=O)N([C@@H](C)CO)C[C@@H]2C)cc1 | inactive | inactive | inactive |
| COc1ccc(S(=O)(=O)N(C)C[C@H]2OCc3cn(nn3)CCCC(=O)N([C@@H](C)CO)C[C@H]2C)cc1 | inactive | inactive | inactive |
| OCCN1CC(O)C(O)C(O)C1CO (stereo unspecified) | inactive | inactive | inactive |
| CNC[C@@H]1OCCCC[C@@H](C)Oc2ccc(NC(=O)CCCN(C)C)cc2C(=O)N([C@@H](C)CO)C[C@H]1C | inactive | inactive | inactive |
| COc1ccc(CN(C)C[C@H]2Oc3ccc(NS(=O)(=O)c4cn(C)cn4)cc3C(=O)N([C@@H](C)CO)C[C@@H]2C)cc1 | inactive | inactive | inactive |
| C[C@H](CO)N1C[C@H](C)[C@@H](CN(C)C(=O)Cc2ccccn2)Oc2cc(C#Cc3ccccc3)ccc2S1(=O)=O | inactive | inactive | inactive |
| C[C@@H]1CCCCO[C@H](CN(C)C)[C@@H](C)CN([C@H](C)CO)C(=O)c2cc(NS(=O)(=O)c3cn(C)cn3)ccc2O1 | inactive | inactive | inactive |
